Experimental data published in PubChem BioAssay AID485344 (National Center for Advancing Translational Sciences (NCATS), 2010).
About 6,900 (2%) of roughly 340,000 compounds were called active. No stated cut-off is given here; in the data, active means inhibition above about 30%; inactive means below that, where a call was filed. This is a selection; strong and weak results do not stand in their true shares. The source gives no active or inactive call for entries shown without one.

target: D(2) dopamine receptor (Homo sapiens) (UniProt P14416); experiment: HTS Assay for Allosteric Antagonists of the Human D2 Dopamine Receptor: Primary Screen for Antagonists; details: HEK293 TREx D2 cells, calcium flux, dopamine EC80; at 10 µM; stronger effect = higher value; further: 0% is about no effect
Method in brief: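 Calcium flux kinetic readout in an inducible HEK293 TREx D2 line plated overnight at 30 C. After 180 s compound exposure, an EC80 dopamine challenge follows with another 180 s kinetic read to detect antagonism.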

UniProt P14416, sequence (P14416 whole entry, looked up): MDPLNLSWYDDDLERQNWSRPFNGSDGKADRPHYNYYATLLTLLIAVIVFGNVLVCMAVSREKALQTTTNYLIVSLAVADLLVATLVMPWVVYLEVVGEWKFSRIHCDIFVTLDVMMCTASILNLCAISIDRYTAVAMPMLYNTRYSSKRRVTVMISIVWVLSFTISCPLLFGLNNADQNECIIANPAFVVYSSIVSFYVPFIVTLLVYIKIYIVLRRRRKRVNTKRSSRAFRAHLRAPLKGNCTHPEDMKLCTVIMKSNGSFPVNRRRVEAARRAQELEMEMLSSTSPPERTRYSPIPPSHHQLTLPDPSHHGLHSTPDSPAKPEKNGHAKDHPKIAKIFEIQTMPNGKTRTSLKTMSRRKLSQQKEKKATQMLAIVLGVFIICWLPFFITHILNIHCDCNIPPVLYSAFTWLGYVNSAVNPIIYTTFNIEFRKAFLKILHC

Compound | inhibition
Cc1cccc(-c2nc(CSCC(=O)NCCc3ccc(Cl)cc3)c(C)o2)c1 | 7.74%
Cc1ccc(C)c(NC(=O)CN2C(=O)c3cccnc3Oc3ccc(C)cc32)c1 | -6.32%
Cc1ccc(-c2nn(CC(=O)NC3CCCC3)c3c2cnc2ccccc23)cc1 | 0.196%
CCc1cccc(CC)c1-n1nnc2c(sc3nc(C)cc(C)c32)c1=O | 15.1%
Cc1cc(=O)n(Cc2cccc(F)c2)c2c1c(C)nn2-c1cccc(F)c1 | -9.02%
Cc1ccccc1CN1c2ccccc2-c2nc(SCC(N)=O)ncc2S1(=O)=O | 5.98%
O=C(CSc1nc(-c2ccc(F)cc2)[nH]c1-c1ccccc1)Nc1ccccc1 | 9.06%
CCc1ccc(-c2nn(CC(=O)Nc3ccccc3C)c3c2cnc2ccc(C)cc23)cc1 | 13.5%
Clc1ccc(OCc2nc3ccccc3n2Cc2ccccc2)c(Cl)c1 | 8.28%
COc1ccc(OC)c(C2C(C(=O)N3CCCCC3)=C(C)Nc3nc4ccccc4n32)c1 (stereo unspecified) | 4.73%
Cc1cc(C)c(NC(=O)Cn2c(=O)nc(-c3ccccc3)c3cc(Cl)ccc32)c(C)c1 | 11.2%
CC(C)(C)c1ccc(CN(Cc2ccco2)c2cnc(S(C)(=O)=O)nc2C(=O)Nc2ccc(F)cc2)cc1 | 21.6%
CNC(=O)Cn1c(=O)c2cccn2c2ccc(F)cc21 | -7.86%
Cc1cccc(NC(=O)c2cc(S(=O)(=O)N3CCN(c4ccccc4F)CC3)ccc2F)c1C | 2.09%
COc1ccc(CNC(=O)CCn2nc(C)c3c(C)n(-c4ccccc4)nc3c2=O)c(OC)c1 | 6.63%
COc1ccc(CNC(=O)c2ccc3nc(CCc4ccccc4)oc3c2)c(OC)c1 | -1.16%
CC(C)CNc1ncnc2c1nnn2C | 5.82%
O=C(CCNS(=O)(=O)c1cccc2nsnc12)NCc1ccccc1 | 4.91%
Cc1c(Cl)cccc1-n1ncc(C(=O)NCc2cccs2)c1C1CCN(C(=O)OC(C)(C)C)CC1 | 3.85%
CCCn1c(N)c(Sc2ccccc2)c(=O)n(CCC)c1=O | active: 49%
Cc1ccc(OC(=O)CSc2nnc(-c3cccs3)o2)cc1C | 7.71%
Cc1ccc(S(=O)(=O)N2CCOC2CNC(=O)C(=O)NCc2ccc3c(c2)OCO3)cc1 (stereo unspecified) | active: 66%
CCOc1ccc(-n2c(SCC(=O)N3CCCCCC3)nc3c([nH]c4ccccc43)c2=O)cc1 | -24.9%
CCn1cc(C(=O)NCCc2ccc(OC)c(OC)c2)c(=O)c2cc(S(=O)(=O)N3CCC(C)CC3)ccc21 | -7.17%

Compound | inhibition
CCOc1ccc(N(CC(=O)Nc2ccccc2CC)S(=O)(=O)c2c(C)[nH]c(=O)[nH]c2=O)cc1 | 9.58%
Cc1ccc(NC(=O)Cn2c(=O)oc3ccccc32)cc1C | 4.34%
Cc1ccc(NC(=O)c2sc3nc[nH]c(=O)c3c2C)cc1Cl | -24.1%
CCOc1ccccc1NC(=O)Cn1c(=O)n(Cc2ccco2)c(=O)c2ccc(C(=O)NC3CCCC3)cc21 | 1.09%
COc1ccc(Cl)cc1NC(=O)Cn1nc(Cc2ccncc2)c2ccccc2c1=O | 8.5%
COc1ccccc1NC(=O)N1CCC(CN2CCc3ccccc3C2)CC1 | -5.6%
CCc1ccccc1NC(=O)C1CCN(C(=O)N2CC(C)Oc3ccc(Cl)cc32)CC1 (stereo unspecified) | 19.3%
Cc1cc(F)ccc1NC1(c2ccccc2)C(=O)c2ccccc2C1=O | 2.7%
CC(C)Cn1cnc2c(c(-c3ccccc3)c(-c3ccccc3)n2Cc2ccco2)c1=N | active: 46.4%
Cc1c(-c2nc(-c3ccccc3F)no2)nnn1-c1cc(F)ccc1F | 5.68%
CCCNC(=O)C(C)n1nc(C)c2c(C)n(-c3ccccc3)nc2c1=O (stereo unspecified) | 1.89%
Cc1ccc(CNC(=O)CSc2c3c(nc4cc(Cl)ccc24)CCCC3)cc1 | -3%
Cc1ccc(CC(=O)Nc2nncs2)cc1 | active: 47.3%
CCOC(=O)CSc1nc(-c2ccc(Cl)cc2)cc(C(F)(F)F)c1C#N | 1.76%
Cc1ccc(C(=O)Oc2c(S(=O)(=O)c3ccccc3)c(C)nn2-c2ccccc2)cc1 | 1.75%
CN1C(=O)c2ccccc2Sc2ccc(NC(=O)NCc3cccc(Cl)c3)cc21 | 9.72%
Cc1cn2c(=O)cc(COC(=O)c3cccc(NC(=O)COc4ccccc4C)c3)nc2s1 | 15.4%
Cc1ccc(NC(=O)CCNS(=O)(=O)c2cccc3nonc23)cc1Cl | -4.3%
Cc1ccc(Cc2nc3ccccc3nc2SCC(=O)N2CCCc3ccccc32)cc1 | 13.9%
COc1ccc(-n2c(-c3ccc(C)cc3)cc3c2CC(C)(C)CC3=O)c(OC)c1 | -3.74%
Cc1ccccc1C(=O)NCCc1csc(-c2ccc(C(F)(F)F)cc2)n1 | 2.93%
COc1ccc(CCNC(=O)c2ccc3c(c2)N(Cc2ccccc2F)C(=O)c2ccccc2S3=O)cc1OC (stereo unspecified) | -5.82%
CCOc1ccccc1CNC(=O)CCc1c(C)nn(-c2ccc(N3CCOCC3)nn2)c1C | -2.59%
O=C(CN1C(=O)COc2ccc(S(=O)(=O)N3CCCC3)cc21)N1CCN(c2cccc(C(F)(F)F)c2)CC1 | 12%

Compound | inhibition
COCC(=O)N1CCN(c2cccc(C(F)(F)F)c2)CC1 | active: 43.9%
COc1ccc(N2CCN(S(=O)(=O)CCNC(=O)COc3ccccc3F)CC2)cc1 | 17.9%
CCN(CC)S(=O)(=O)c1ccc(C(=O)NCCSc2c(-c3ccc(C)cc3)[nH]c3ccccc23)cc1 | -7.77%
CCN1CCN(C(=O)Cn2c(-c3cccs3)cc3ccccc32)CC1 | 1.45%
COc1cccc(OCc2cc(=O)n3c(-c4ccccc4)csc3n2)c1 | 14.4%
COc1nc(-c2ccccc2)ccc1-c1noc(-c2ccccc2Br)n1 | -2.97%
CCC(C)Nc1oc(-c2ccc(COc3ccc(Cl)cc3)o2)nc1C#N (stereo unspecified) | -5.39%
O=C(Nc1ccc(OCc2cc(=O)n3ccccc3n2)cc1)c1ccccc1Cl | 4.12%
COc1ccc(-n2nc(C(=O)N3CCN(c4ccc(F)cc4)CC3)c3ccccc3c2=O)c(OC)c1 | active: 34.4%
CCc1ccc(CN(Cc2ccco2)C(=O)COc2ccc(Cl)c(C)c2)cc1 | 15.2%
CCn1cc(C(=O)NCc2ccc(C)cc2)c(=O)c2cc(S(=O)(=O)N(C)C3CCCCC3)ccc21 | -9.6%
CCC(C)NC(=O)CSc1nc2c(sc3ccccc32)c(=O)n1CCc1ccc(OC)c(OC)c1 (stereo unspecified) | 15.7%
CCN(CC)c1nc2c(S(=O)(=O)c3cccc(Cl)c3)nnn2c2ccsc12 | 7.37%
COc1ccc(S(=O)(=O)c2c(SC)nn(CC(=O)Nc3cccc(C)c3C)c2N)cc1 | 5.98%
Cc1ccc(-c2nc(CS(=O)(=O)CC(=O)NCCc3ccccc3)c(C)o2)cc1 | 16.2%
Cc1ccc2c(c1)NC(=O)c1cccnc1O2 | 0.806%
COc1ccc(N2CCN(C(=O)CSc3nnnn3C3CC3)CC2)cc1 | active: 31.8%
COc1ccc(CNC(=O)Cn2nc(N3CCN(c4ccccc4)CC3)ccc2=O)c(OC)c1 | 9.69%
CCCCn1c(NCc2cc(Br)ccc2O)nc2ccccc21 | 3.06%
COC(=O)c1c(-c2cccs2)csc1NC(=O)c1ccc(OC)c(OC)c1 | 2.91%
CCNC(=O)C1CCN(c2nnc(C)c3c(C)n(-c4ccc(OC)cc4)nc23)CC1 | -2.3%
Cc1cccc(NC(c2ccccc2C)c2ccc3ccc(C)nc3c2O)n1 (stereo unspecified) | -21.6%
O=C(OCn1nnc2ccccc2c1=O)c1cc2ccccc2o1 | active: 68.6%
CC(=O)c1ccc(OCC(O)CN(C)CCOc2ccc(Br)cc2)cc1 (stereo unspecified) | active: 43.8%

Compound | inhibition
Cc1cc(C)n(-c2nc3cc(Cl)ccc3nc2Nc2ccc(CC(=O)O)cc2)n1 | 5.46%
COc1ccc2nc(NC(=O)c3nc(SCc4ccccc4F)ncc3Cl)sc2c1 | -10.8%
CCn1c(SCC(=O)c2ccccc2)nnc1-c1cccc(Cl)c1 | 16.7%
Cc1ccc(/C=C/c2onc(C)c2S(=O)(=O)N2CCC(C(=O)NCc3ccc(OC(C)C)cc3)CC2)cc1 | -22%
O=C(Cn1c(-c2cccs2)cc2cc(F)ccc21)NCCCN1CCN(c2ccc(F)cc2)CC1 | -7.76%
COc1cccc(CNCCSc2nnnn2-c2ccccc2)c1OC | 27.8%
COc1ccc(-c2c(C)c3ccc(O)c(CN4CCCC4)c3oc2=O)cc1 | -7.13%
Cc1ccc(CNC(=O)c2ccccc2NC(=O)c2nsc3ccccc23)cc1 | 2.74%
CC(=O)N1CCC(N2CCN(c3ccccc3F)CC2)CC1 | active: 71.4%
Cc1cccc(C)c1NC(=O)CN1C(=O)C2CC=CCC2C1=O (stereo unspecified) | active: 56.9%
COc1ccc(OCC(=O)NCC(c2ccc(OC)cc2)N2CCOCC2)cc1 (stereo unspecified) | -11.8%
Cc1ccc(C)c(N2CCN(C(=O)CS(=O)(=O)c3cccc4nsnc34)CC2)c1 | 22%
Cc1cc(NC(=O)C(C)(C)C)cc(-c2nc3ncccc3o2)c1O | -10.5%
CC(=O)/C(C[N+]1(C)CCCCC1)=N\O | active: 44.1%
Cc1cccc(N2CCN(C(=O)CN3C(=O)COc4ccc(S(=O)(=O)N5CCCC5)cc43)CC2C)c1 (stereo unspecified) | 17.1%
Cc1cccc2sc(N(Cc3cccnc3)C(=O)C3COc4ccccc4O3)nc12 (stereo unspecified) | 7.76%
Cc1ccc(CNC(=O)CN2C(=O)C3(SCC(=O)N3c3ccc(F)c(F)c3)c3ccccc32)cc1 (stereo unspecified) | -1.76%
COc1ccc(-c2nc(Cn3c(SCc4ccccc4F)nc4cccnc43)c(C)o2)cc1 | -16.9%
COc1cc(C(=O)NCC(=O)N/N=C/c2ccc(-c3cccc([N+](=O)[O-])c3)o2)cc(OC)c1OC | active: 50.1%
COC(=O)c1c(NC(=O)c2ccc(S(=O)(=O)N(C)C3CCCCC3)cc2)sc2c1CCN(C)C2 | 10.4%
COC(=O)c1ccccc1NC(=O)C1CCCN(c2nnc(C)c3c(C)n(-c4ccccc4)nc23)C1 (stereo unspecified) | -19.9%
CCOC(=O)C(Cc1ccccc1)NC(=O)CCc1c(C)nc2c(c(C)nn2-c2ccc(C)c(C)c2)c1C (stereo unspecified) | -12.4%
O=C(CN1C(=O)CCc2cc(S(=O)(=O)N3CCCCC3)ccc21)NCc1ccc(Cl)cc1 | 5.98%
CCc1ccc(NC(=O)CSc2ncc(S(=O)(=O)c3cc(C)ccc3C)c(=O)[nH]2)cc1 | 10.1%
